Here are results for 30 molecules from the antibiotic and cytotoxicity screens of Wong et al. (2023).

The other results are listed elsewhere or left out.

The assay concerns S. aureus RN4220. The assay is described as follows: growth inhibition call (relative growth <= 0.2). Particulars: 50 µM.
For `COCC(=O)N(C)C[C@H]1Oc2cc(-c3ccc(OC)cc3)ccc2S(=O)(=O)N([C@H](C)CO)C[C@@H]1C`, the growth inhibition call is “inactive”.

`Cc1ncc([N+](=O)[O-])n1CC(C)O` (stereo not given): the growth inhibition call is “inactive”.

With `C[C@H](CO)N1C[C@H](C)[C@H](CN(C)C(=O)Cc2ccccc2)OCCCC[C@H](C)Oc2ccc(NC(=O)C3CCCCC3)cc2C1=O`, the growth inhibition call was “inactive”.

Take `COc1ccc(S(=O)(=O)Nc2ccc3c(c2)C(=O)N([C@@H](C)CO)C[C@@H](C)[C@H](CN(C)Cc2ccc4c(c2)OCO4)OCCCC[C@H](C)O3)cc1`: the growth inhibition call is “inactive”.

Regarding `C[C@@H]1CN([C@@H](C)CO)C(=O)c2cccc(NC(=O)NC3CCCCC3)c2O[C@H]1CN(C)Cc1ccc(-c2ccccc2)cc1`, the growth inhibition call is “inactive”.

Consider `COc1ccc(S(=O)(=O)N(C)C[C@H]2Oc3ccc(NS(C)(=O)=O)cc3C(=O)N([C@H](C)CO)C[C@@H]2C)cc1`, for which the growth inhibition call was “inactive”.

For the molecule `O=C(C[C@@H]1CC[C@@H]2[C@H](COC[C@H](O)CN2S(=O)(=O)c2ccc(Cl)cc2)O1)NCCN1CCCC1`, the growth inhibition call was “inactive”.

Consider `C[C@@H]1CCCCO[C@@H](CN(C)C(=O)Nc2cccc3ccccc23)[C@H](C)CN([C@H](C)CO)C(=O)c2cc(NC(=O)Nc3ccc(F)cc3)ccc2O1`, for which the growth inhibition call is “inactive”.

As for `C[C@@H]1CN([C@@H](C)CO)C(=O)Cc2cc(NC(=O)Cc3ccccc3)ccc2O[C@H]1CN(C)S(=O)(=O)c1ccc(F)cc1`, the growth inhibition call is “inactive”.

In the case of `C[C@H]1CN([C@@H](C)CO)C(=O)c2cc(Br)cnc2O[C@@H]1CN(C)C(=O)Nc1ccc(F)cc1`, the growth inhibition call is “inactive”.

As for `C[C@@H]1CN([C@H](C)CO)C(=O)CCCn2cc(nn2)CO[C@@H]1CN(C)Cc1cccc2c1OCCCO2`, the growth inhibition call was “inactive”.

As to `C[C@@H]1CCCCO[C@H](CN(C)C(=O)Nc2ccc(F)cc2)[C@H](C)CN([C@@H](C)CO)C(=O)c2cc(NS(=O)(=O)c3cccs3)ccc2O1`, the growth inhibition call is “inactive”.

Consider `Cc1ccc(S(=O)(=O)N(C)C[C@H]2OCCCC[C@H](C)Oc3ccc(NC(=O)Nc4ccc(C(F)(F)F)cc4)cc3C(=O)N([C@H](C)CO)C[C@H]2C)cc1`, for which the growth inhibition call was “inactive”.

As for `CCc1c(C)[nH]c(=S)c(C#N)c1C`, the growth inhibition call was “inactive”.

Consider `C[C@@H]1CN([C@H](C)CO[Si](C)(C)C(C)(C)C)C(=O)c2cc(NC(=O)C3CCCCC3)ccc2O[C@H]1CN(C)C(=O)c1ccc(Cl)cc1`, for which the growth inhibition call is “inactive”.

Turning to `Cc1noc(C)c1NC(=O)Nc1cccc2c1O[C@H](CN(C)S(C)(=O)=O)[C@H](C)CN([C@@H](C)CO)C2=O`, the growth inhibition call was “inactive”.

Regarding `OCc1ccccc1-c1ccccc1`, the growth inhibition call was “inactive”.

For the molecule `C[C@@H]1CN([C@H](C)CO)C(=O)c2cc(NS(=O)(=O)c3cn(C)cn3)ccc2O[C@@H](C)CCCCO[C@@H]1CN(C)S(=O)(=O)c1ccccc1`, the growth inhibition call was “inactive”.

Take `C[C@@H]1CN([C@H](C)CO)C(=O)c2cc(NC(=O)Nc3cccc4ccccc34)ccc2O[C@@H](C)CCCCO[C@@H]1CN(C)Cc1ccc2c(c1)OCO2`: the growth inhibition call was “inactive”.

`C[C@H](CO)N1C[C@H](C)[C@H](CN(C)CC2CC2)Oc2c(NS(=O)(=O)c3cn(C)cn3)cccc2C1=O`: the growth inhibition call is “inactive”.

Regarding `C[C@H](CO)N1C[C@H](C)[C@@H](CN(C)C(=O)c2ccc3c(c2)OCO3)Oc2cc(C#Cc3ccccc3F)ccc2S1(=O)=O`, the growth inhibition call was “inactive”.

Regarding `C[C@@H]1CCCCO[C@H](CN(C)Cc2ccc(Cl)c(Cl)c2)[C@@H](C)CN([C@H](C)CO)C(=O)c2cc(NS(=O)(=O)c3cccs3)ccc2O1`, the growth inhibition call was “inactive”.

`C[C@H](CO)N1C[C@H](C)[C@H](CN(C)C(=O)CN2CCOCC2)Oc2ncc(C#CCN(C)C)cc2C1=O`: the growth inhibition call was “inactive”.

`CC(C)NC(=O)N(C)C[C@@H]1Oc2ccc(NS(=O)(=O)c3ccc(Cl)cc3)cc2C(=O)N([C@@H](C)CO)C[C@H]1C`: the growth inhibition call was “inactive”.

As to `C[C@H]1CN([C@@H](C)CO)C(=O)c2cccc(NC(=O)C3CCOCC3)c2O[C@@H]1CN(C)S(=O)(=O)c1ccc(Cl)cc1`, the growth inhibition call was “inactive”.

`C[C@@H]1CCCCO[C@@H](CN(C)CC2CCCCC2)[C@@H](C)CN([C@H](C)CO)C(=O)c2cc(NS(=O)(=O)c3ccc(F)cc3)ccc2O1`: the growth inhibition call is “inactive”.

With `O=C(N[C@@H]1C=C[C@@H](CC(=O)N2CCOCC2)O[C@H]1CO)c1ccccn1`, the growth inhibition call is “inactive”.

Turning to `COc1cc(-c2coc3cc(OC4OC(CO)C(O)C(O)C4O)c(OC)c(O)c3c2=O)cc(O)c1OC` (stereo not given), the growth inhibition call was “inactive”.

Take `Cn1cc(N2C[C@]3(CCN(S(C)(=O)=O)C3)CC2=O)cn1`: the growth inhibition call is “inactive”.

Consider `CS(=O)(=O)N1CCC2(CC1)CN(CCn1cccn1)C(=O)CO2`, for which the growth inhibition call was “inactive”.
